Test [1] concerns the target T1, MUR3 fused to TF–Cub or NubG (split-ubiquitin assay) (Arabidopsis thaliana) (UniProt Q7XJ98).
T1 sequence: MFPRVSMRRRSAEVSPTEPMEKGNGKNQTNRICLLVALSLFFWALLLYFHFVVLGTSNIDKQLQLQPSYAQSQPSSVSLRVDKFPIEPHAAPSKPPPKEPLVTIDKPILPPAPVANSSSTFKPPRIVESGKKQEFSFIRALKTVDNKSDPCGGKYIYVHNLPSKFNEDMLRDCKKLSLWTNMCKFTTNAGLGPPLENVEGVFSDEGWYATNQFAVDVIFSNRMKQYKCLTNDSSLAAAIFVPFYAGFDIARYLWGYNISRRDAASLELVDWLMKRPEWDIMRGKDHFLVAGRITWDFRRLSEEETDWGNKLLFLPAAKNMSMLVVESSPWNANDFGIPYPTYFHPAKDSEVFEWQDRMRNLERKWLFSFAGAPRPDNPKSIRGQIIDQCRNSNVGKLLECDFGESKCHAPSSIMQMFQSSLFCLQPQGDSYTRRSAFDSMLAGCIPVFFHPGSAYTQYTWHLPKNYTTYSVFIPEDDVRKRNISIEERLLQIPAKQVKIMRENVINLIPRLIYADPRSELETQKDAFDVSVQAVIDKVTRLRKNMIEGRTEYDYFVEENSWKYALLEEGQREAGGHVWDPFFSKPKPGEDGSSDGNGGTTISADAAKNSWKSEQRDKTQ
Nature of the test: two-hybrid; split-ubiquitin assay (DUALmembrane) in yeast NMY51: TF–Cub (bait) and NubG (prey) at the N-termini; growth on SD-His-Leu-Trp-Ade scored as interaction, X-gal overlay for β-galactosidase.

The target of test [2] is T2, FUT1 fused to TF–Cub or NubG (split-ubiquitin assay) (Arabidopsis thaliana) (UniProt Q9SWH5).
T2 sequence: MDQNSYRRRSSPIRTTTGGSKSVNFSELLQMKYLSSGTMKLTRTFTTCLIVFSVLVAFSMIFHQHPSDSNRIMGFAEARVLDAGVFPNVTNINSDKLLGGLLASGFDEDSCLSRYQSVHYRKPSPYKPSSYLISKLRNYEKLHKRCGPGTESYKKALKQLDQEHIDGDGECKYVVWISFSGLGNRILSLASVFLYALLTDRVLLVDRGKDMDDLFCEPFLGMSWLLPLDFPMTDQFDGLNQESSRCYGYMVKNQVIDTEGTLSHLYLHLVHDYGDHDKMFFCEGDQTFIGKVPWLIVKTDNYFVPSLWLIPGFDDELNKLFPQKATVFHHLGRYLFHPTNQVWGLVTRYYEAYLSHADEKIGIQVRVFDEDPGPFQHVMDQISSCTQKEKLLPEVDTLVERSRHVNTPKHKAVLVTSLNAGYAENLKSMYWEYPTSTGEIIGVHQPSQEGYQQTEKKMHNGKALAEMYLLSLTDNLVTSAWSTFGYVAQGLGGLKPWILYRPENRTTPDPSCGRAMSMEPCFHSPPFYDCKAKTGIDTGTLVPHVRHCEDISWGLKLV
Described as above.

No constants are given. Whether binding was seen depends on the method and setting. Some entries that bind do so weakly or less than the wild type. Tags and fused reporters may be left off the sequences shown.

B1: MUR3 fused to TF–Cub or NubG (split-ubiquitin assay) (protein, UniProt Q7XJ98 1-619)
chain: MFPRVSMRRRSAEVSPTEPMEKGNGKNQTNRICLLVALSLFFWALLLYFHFVVLGTSNIDKQLQLQPSYAQSQPSSVSLRVDKFPIEPHAAPSKPPPKEPLVTIDKPILPPAPVANSSSTFKPPRIVESGKKQEFSFIRALKTVDNKSDPCGGKYIYVHNLPSKFNEDMLRDCKKLSLWTNMCKFTTNAGLGPPLENVEGVFSDEGWYATNQFAVDVIFSNRMKQYKCLTNDSSLAAAIFVPFYAGFDIARYLWGYNISRRDAASLELVDWLMKRPEWDIMRGKDHFLVAGRITWDFRRLSEEETDWGNKLLFLPAAKNMSMLVVESSPWNANDFGIPYPTYFHPAKDSEVFEWQDRMRNLERKWLFSFAGAPRPDNPKSIRGQIIDQCRNSNVGKLLECDFGESKCHAPSSIMQMFQSSLFCLQPQGDSYTRRSAFDSMLAGCIPVFFHPGSAYTQYTWHLPKNYTTYSVFIPEDDVRKRNISIEERLLQIPAKQVKIMRENVINLIPRLIYADPRSELETQKDAFDVSVQAVIDKVTRLRKNMIEGRTEYDYFVEENSWKYALLEEGQREAGGHVWDPFFSKPKPGEDGSSDGNGGTTISADAAKNSWKSEQRDKTQ
With B1, the binding entry in test [1] and in test [2] was “binds” each time.

B2: XXT1 fused to TF–Cub or NubG (split-ubiquitin assay) (protein, UniProt Q9LZJ3 1-460)
chain: MIEKCIGAHRFRRLQRFMRQGKVTILCLVLTVIVLRGTIGAGKFGTPEKDIEEIREHFFYTRKRGEPHRVLVEVSSKTTSSEDGGNGGNSYETFDINKLFVDEGDEEKSRDRTNKPYSLGPKISDWDEQRRDWLKQNPSFPNFVAPNKPRVLLVTGSAPKPCENPVGDHYLLKSIKNKIDYCRIHGIEIFYNMALLDAEMAGFWAKLPLIRKLLLSHPEIEFLWWMDSDAMFTDMVFELPWERYKDYNLVMHGWNEMVYDQKNWIGLNTGSFLLRNSQWSLDLLDAWAPMGPKGKIREEAGKVLTRELKDRPAFEADDQSAMVYLLATEREKWGGKVYLESGYYLHGYWGILVDRYEEMIENHKPGFGDHRWPLVTHFVGCKPCGKFGDYPVERCLRQMDRAFNFGDNQILQMYGFTHKSLGSRRVKPTRNQTDRPLDAKDEFGLLHPPFKAAKLSTTTT
For B2, in test [2], the binding entry is listed as “no binding”.

B3: XXT2 fused to TF–Cub or NubG (split-ubiquitin assay) (protein, UniProt O22775 1-461)
chain: MIERCLGAYRCRRIQRALRQLKVTILCLLLTVVVLRSTIGAGKFGTPEQDLDEIRQHFHARKRGEPHRVLEEIQTGGDSSSGDGGGNSGGSNNYETFDINKIFVDEGEEEKPDPNKPYTLGPKISDWDEQRSDWLAKNPSFPNFIGPNKPRVLLVTGSAPKPCENPVGDHYLLKSIKNKIDYCRLHGIEIFYNMALLDAEMAGFWAKLPLIRKLLLSHPEIEFLWWMDSDAMFTDMAFELPWERYKDYNLVMHGWNEMVYDQKNWIGLNTGSFLLRNNQWALDLLDTWAPMGPKGKIREEAGKVLTRELKDRPVFEADDQSAMVYLLATQRDAWGNKVYLESGYYLHGYWGILVDRYEEMIENYHPGLGDHRWPLVTHFVGCKPCGKFGDYPVERCLKQMDRAFNFGDNQILQIYGFTHKSLASRKVKRVRNETSNPLEMKDELGLLHPAFKAVKVQTNQV
For B3, the binding result in test [1] is reported as “binds”.
